Assay results from PubChem BioAssay AID624296 (National Center for Advancing Translational Sciences (NCATS), 2012).
Out of some 350,000 compounds screened, about 9,900 (2.8%) were called active. This list was built around the results that the source calls inconclusive (neither active nor inactive); the mix of calls is not that of the screen. Calls follow the shape of the dose curve; as a rule, active = well fitted activation curve with a large enough effect; inconclusive = small, poorly fitted or top-dose-only effect; inactive = no such curve, though single readings can be large or run the other way. No potency is given beside an inconclusive call; the fits are too rough.

Assay: A quantitative high throughput screen for small molecules that induce DNA re-replication in MCF 10a normal breast cells. Also: nearly all actives have a fitted effect of over 50% in size.
Conditions: MCF 10A DNA re-replication, Hoechst nuclear intensity, 48 h; series mostly up to 46.1 µM
Potency is read from the fitted curve at half-maximal effect; tags tell the direction and shape of the fitted curve.

Row | SMILES | Potency
1 | CC1CC(C)CN(S(=O)(=O)CCNC(=O)c2ccccc2)C1 (stereo unspecified) | inactive
2 | CCc1cccc(NC(=O)Cc2ccc(OC)c(OC)c2)c1 | inactive
3 | Cc1ccc(C(=O)N/N=C(/CC(=O)c2cccs2)C(F)(F)F)cc1 | active: 18.4 µM
4 | CC1=CC(C)C2(COC(=O)Nc3ccccc3)COC(C)C1C2C (stereo unspecified) | inconclusive [activator, single point]
5 | O=C(OCC(=O)N1CCN(C(=O)c2ccco2)CC1)c1cncc(Br)c1 | inconclusive [activator, partial curve, poor fit]
6 | Cc1ccc(C)c(S(=O)(=O)N2CCN(c3nc(CN4CCOCC4)nc4sc(C)c(C)c34)CC2)c1 | inconclusive [activator, single point]
7 | O=C(CCN1CCOCC1)Nc1c(-c2ccccc2)c2cc(Br)ccc2[nH]c1=O | inconclusive [activator, partial curve, poor fit]
8 | O=C(Nc1ccccc1)[C@@H]1CC=C[C@@H]2CCN(Cc3ccccc3)C(=O)[C@@H]21 | inconclusive [activator, full curve, poor fit]
9 | CCOc1ccccc1NC(=O)c1cc(-c2ccccn2)nc2ccccc12 | inconclusive [activator, partial curve]
10 | CN(C)c1ccc(/C=C2\SC(N3CCCCC3)=NC2=O)cc1 | inactive
11 | CSc1ccccc1NC(=O)c1cccc(S(=O)(=O)N2CCN(C)CC2)c1 | inconclusive [activator, single point]
12 | CCn1c2ccccc2c2cc(NC(=O)c3cccc([N+](=O)[O-])c3C)ccc21 | active: 18.4 µM
13 | Nc1c(C(=O)c2ccc(Cl)cc2)sc2nc3c(cc12)CCC3 | inconclusive [activator, single point]
14 | O=C(c1ccc2c(c1)OCO2)C1CCCN(Cc2cc(F)ccc2-n2cccn2)C1 (stereo unspecified) | inactive
15 | CC(C)c1ccc(C(C)NCCS(=O)(=O)c2ccc(Br)cc2)cc1 (stereo unspecified) | inconclusive [activator, single point]
16 | CC(=O)/C(=N/Nc1cccc(C)c1)N1CCOCC1 | inconclusive [activator, single point]
17 | O=C(CCCCl)Oc1ccc2cc(-c3ccc4ccccc4n3)c(=O)oc2c1 | active: 6.51 µM
18 | O=Nc1c(O)n(Cc2c(Cl)cccc2Cl)c2ccccc12 | inconclusive [activator, partial curve]
19 | CCOC(=O)N1CCN(C(=O)COC(=O)c2ccc(Cl)nc2)CC1 | inconclusive [activator, single point]
20 | CC(=O)Nc1cccc(O)c1 | inconclusive [activator, partial curve, poor fit]
21 | O=C(COC(=O)c1ccc(S(=O)(=O)N2CCCCC2)cc1)Nc1ccccc1Cl | inconclusive [activator, partial curve, poor fit]
22 | Cc1ccc(NS(=O)(=O)c2ccc(Cl)s2)cc1S(=O)(=O)N(C)C | inconclusive [activator, partial curve, poor fit]
23 | COC(=O)c1ccc(NC(=O)CN2CCN(CC#N)CC2)cc1 | inactive
24 | C=CCn1c(C)cc(C(=O)COC(=O)c2ccc(N)c([N+](=O)[O-])c2)c1C | inactive

Row | SMILES | Potency
25 | O=S(=O)(CCc1nc2ccccc2[nH]1)c1ccc(Cl)cc1 | inconclusive [activator, single point]
26 | CN(C)CCCNC(=O)c1cc2sc3ccccc3c2s1 | active: 7.31 µM
27 | CCN(CC(=O)Nc1ccc2c(c1)CCC2)Cc1nc2ccccc2c(=O)[nH]1 | inconclusive [activator, partial curve, poor fit]
28 | COc1ccc(C(=O)N/N=C2\CCS(=O)(=O)c3ccc(F)cc32)cc1OC | inconclusive [activator, single point]
29 | COc1ccc(-c2nnn(CC(=O)N(Cc3ccc(F)cc3)C(C(=O)NC3CCCC3)c3ccc(F)cc3)n2)cc1 (stereo unspecified) | inconclusive [activator, full curve, poor fit]
30 | CN(C)CCCOC(=O)COc1ccc(C(C)(C)C)cc1 | inactive
31 | COc1nc(C)ccc1-c1noc(-c2ccco2)n1 | inconclusive [activator, single point]
32 | CCOc1cc(S(=O)(=O)NCc2ccco2)c(OCC)cc1-n1cnnn1 | inactive
33 | O=C(O)c1nccnc1C(=O)Nc1ccc(Cl)cn1 | inactive
34 | Cc1cc(C)nc(/N=C2\NC(=O)CC(C(=O)O)N2c2ccc(C)c(C)c2)n1 (stereo unspecified) | inactive
35 | COc1ccc(OC)c(N(CC(=O)NCCc2ccc(OC)c(OC)c2)S(=O)(=O)c2ccccc2)c1 | inactive
36 | Cc1ccc(/C=C/C(=O)c2ccccc(=O)c2O)c(C)c1 | inconclusive [activator, single point]
37 | CCCNC(=O)c1ccc(-c2nc3ccccc3s2)s1 | inconclusive [activator, single point]
38 | Brc1ccccc1OCCCCn1cnc2ccccc21 | inconclusive [activator, single point]
39 | CCOC(=O)c1ccc(NC(=S)NCCc2ccccc2)cc1 | inconclusive [activator, single point]
40 | Cc1cccc(C)c1OCc1cc(C(=O)NC2CCC2)no1 | inconclusive [activator, partial curve, poor fit]
41 | COc1ccc(Cl)cc1NC(=O)COC(=O)c1ccc(Br)o1 | inactive
42 | Nc1ccc(N2CCN(c3ccc(Cl)c(Cl)c3)CC2)cc1 | inconclusive [activator, partial curve]
43 | CCC(=O)N1CCc2cc(S(=O)(=O)NCCN3CCC(C)CC3)ccc21 | inconclusive [activator, partial curve, poor fit]
44 | CCCOc1ccc(/C(CC)=N/NC(=O)C2(C)CC2(Br)Br)cc1 (stereo unspecified) | inconclusive [activator, single point]
45 | CC(C(=O)Nc1ccc2c(c1)OCCO2)n1nnc(-c2ccccc2)n1 (stereo unspecified) | inconclusive [activator, single point]
46 | NC(=O)c1ncn([C@@H]2O[C@H](CNC(=O)[C@H](N)CSCc3ccccc3)[C@@H](O)[C@H]2O)n1 | inactive
47 | O=P(O)(C(O)c1ccccc1)C(O)c1ccccc1 (stereo unspecified) | inconclusive [activator, single point]
48 | O=C(CCCSc1nc2ccccc2[nH]1)NCc1ccccc1 | inactive

Row | SMILES | Potency
49 | CCOc1ccc(NC(=S)NC23CC4CC(CC(C4)C2)C3)cc1 | inactive
50 | Cc1c(NC=C(C#N)C#N)c(=O)n(-c2ccccc2)n1C | inactive
51 | Cc1ccc(C)c2c1cc(C)c1nnc(SCC(=O)Nc3nc4c(s3)CCCC4)n12 | active: 20.6 µM
52 | COc1ccc(-c2cn(Cc3ccc(C(N)=O)cc3)c(-c3ccncc3)n2)cc1 | inconclusive [activator, partial curve, poor fit]
53 | O=C(N[C@@H](Cc1ccccc1)C(=O)OCC(=O)N1CCOCC1)c1cccs1 | inactive
54 | CCC(=O)Nc1nc2ccc(S(C)(=O)=O)cc2s1 | inconclusive [activator, single point]
55 | Cc1ccccc1C(=O)N=c1ccn(-c2nc3ccccc3nc2NS(=O)(=O)c2ccccc2)cc1 | inactive
56 | Cc1ccn2c(=O)nc(SCC(=O)NCc3ccccc3Cl)nc2c1 | inconclusive [activator, partial curve, poor fit]
57 | O=C(Nc1nc(=O)n(C(=O)c2cccc(C(F)(F)F)c2)s1)c1ccccc1 | inactive
58 | CN(c1ccc(C(=O)Nc2cccnc2)cc1)S(=O)(=O)c1ccccc1 | inconclusive [activator, single point]
59 | C[C@]12c3[nH]c4ccc(Cl)cc4c3CCN1C(=O)[C@@H](CC(=O)NCCN1CCOCC1)C[C@@H]2C(=O)N1CCOCC1 | inconclusive [activator, full curve, poor fit]
60 | O=C(CCSC1=NCCCN1)c1ccc(F)cc1 | inconclusive [activator, single point]
61 | N#CCSc1n[nH]c2nc3c(c(=O)n12)C1(CCCCC1)Cc1ccccc1-3 | active: 16.4 µM
62 | COc1ccccc1NC(=O)CSCc1nc2ccccc2[nH]1 | inactive
63 | O=C(NCc1ccccc1)c1ccc(NC(=O)c2ccccc2F)cc1 | inconclusive [activator, partial curve, poor fit]
64 | Cc1ccc(CSc2nnc(CCCCCNC(=O)OC(C)(C)C)o2)cc1 | inconclusive [activator, single point]
65 | O=C(CCN1C(=O)/C(=C/c2cccs2)SC1=S)Nc1ccccc1O | inconclusive [activator, single point]
66 | Fc1cc(F)c2nc(Nc3nc4cc5c(cc4s3)OCO5)sc2c1 | active: 14.6 µM
67 | CCn1ccnc1CN1CCCCC1C(=O)Nc1ccc(Oc2cccnc2)cc1 (stereo unspecified) | inconclusive [activator, single point]
68 | Cc1ccc(C(=O)Nc2nc(=O)n(C(=O)c3ccccc3Cl)s2)cc1 | inconclusive [activator, single point]
69 | CC(NC(=O)C(C)N1C(=O)c2ccccc2C1=O)c1ccccc1 (stereo unspecified) | inactive
70 | COC(=O)CNC(=O)c1c(C)cc(=O)oc1C | inconclusive [activator, single point]
71 | CCCCOc1ccc(CN(C)c2ncnc(N)n2)cc1 | inconclusive [activator, single point]
